Assay results published in the supplement of paper PMC10498489.
About 330 (14%) of roughly 2,300 compounds showed activity.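 The calls were made as follows: active = median modified Z-score above 1.96; inactive = 1.96 or below.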 Only a part is listed here, and it is no random draw.

tested on: HepG2 Srxn1-GFP reporter cells (+30 nM CDDO-Me); test: Srxn1-GFP intensity median modified Z-score relative to plate median; higher = stronger NRF2 / oxidative stress reporter activation, active = hit call of the paper; conditions: 10 µM; exposure time: 24h
In short: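 The modified Z-score of GFP intensity was computed per plate, and the median over replicates is reported. HepG2 Srxn1-GFP BAC reporter cells in three replicate plates were treated for 24 h with compound at 10 μM plus an NRF2 activator at 30 nM (≤0.1% DMSO). Per-cell cytoplasmic GFP came from confocal images, excluding those with under 100 cells, and scaling used 1.4826 × median absolute deviation.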

Row | Compound | Srxn1-GFP intensity median modified Z-score
1 | Cc1ccccc1-n1cnnc1SCC(=O)c1ccc2c(c1)OCCO2 | inactive: 1.22
2 | CC12CCC3c4ccc(O)cc4CC(CCCCCCCCC[S+]([O-])CCCC(F)(F)C(F)(F)F)C3C1CCC2O (centres undefined) [euspeclibcmpd1981] | inactive: -0.582
3 | O=C(O)c1ccc[n+]([O-])c1 [euspeclibcmpd1240] | inactive: -0.339
4 | CCOC(=O)C(CCc1ccccc1)NC(C)C(=O)N1C(C(=O)O)C[C@@H]2CCC[C@@H]21 (some centres undefined) [euspeclibcmpd722] | inactive: -0.468
5 | CC(=O)C1CCC2C3CC=C4CC(=O)CC[C@]4(C)C3CC[C@]12C (some centres undefined) [euspeclibcmpd251] | active: 2.27
6 | O=C(O)C1=CC(=C(c2ccc(O)c(C(=O)O)c2)c2ccc(O)c(C(=O)O)c2)C=CC1=O [euspeclibcmpd1741] | inactive: -0.835
7 | N#Cc1ccc(C(=O)NCCCCN2CCOCC2)cc1 | inactive: 0.374
8 | CN(C(=O)CN(CCO)CC(=O)N(C)C(C)(C)Cc1ccccc1)C(C)(C)Cc1ccccc1 [euspeclibcmpd569] | inactive: -1.21
9 | CCCCCCNC(=O)n1cc(F)c(=O)[nH]c1=O [euspeclibcmpd1269] | inactive: 1.94
10 | CON=C(C(=O)NC1C(=O)N2C(C(=O)O)=C(C[N+]3(C)CCCC3)CSC12)c1csc(=N)[nH]1 (centres undefined) [euspeclibcmpd504] | active: 35.8
11 | COc1ccc(Cl)cc1C(=O)NCCc1ccc(S(=O)(=O)NC(=O)NC2CCCCC2)cc1 [euspeclibcmpd1303] | inactive: -0.77
12 | COC(=O)C[C@H]1C2(C)CC34OC5(C)O[C@@]6([C@H](OC(C)=O)C(OC(C)=O)[C@]7(C)C(C(C(=O)C(C)C)C(=O)O[C@H]7c7ccoc7)[C@@]6(O5)[C@H](OC(C)=O)[C@@]3(O)C2OC(=O)C(C)C)[C@]14C (some centres undefined) [euspeclibcmpd1593] | inactive: 0.648
13 | CC(C)Oc1ccc2c(=O)c(-c3ccccc3)coc2c1 [euspeclibcmpd1027] | inactive: 0.067
14 | CC(=O)Nc1c(I)cc(I)c(C(=O)O)c1I [euspeclibcmpd651] | inactive: -0.413
15 | Cc1cc2cc3c(C)cc(=O)oc3c(C)c2o1 [euspeclibcmpd311] | inactive: -0.0285
16 | COC(=O)c1c(OC)cc2c(c1C)Oc1c(Cl)c(O)c(Cl)c(C)c1C(=O)O2 [euspeclibcmpd1672] | inactive: 0.324
17 | O=C(NCCCN1CCOCC1)c1ccc(Cl)cc1 [euspeclibcmpd2351] | inactive: 0.24
18 | COc1cc(CNC(=O)CCCC/C=C/C(C)C)ccc1O [euspeclibcmpd388] | inactive: 0.638
19 | CC1(C)SC2C(NC(=O)COc3ccccc3)C(=O)N2C1C(=O)O (centres undefined) [euspeclibcmpd2314] | inactive: 0.0167
20 | CCC(N)C12CC3CC(CC(C3)C1)C2 (centres undefined) | inactive: 0.333
21 | CN[C@H]1CC[C@@H](c2ccc(Cl)c(Cl)c2)c2ccccc21 [euspeclibcmpd730] | inactive: -0.98
22 | Cc1cc[nH]c(=NS(=O)(=O)c2ccc(N)cc2)n1 [euspeclibcmpd275] | inactive: -0.506

Row | Compound | Srxn1-GFP intensity median modified Z-score
23 | COC(=O)N=c1[nH]c2ccc(C(=O)c3ccccc3)cc2[nH]1 [euspeclibcmpd378] | active: 19.3
24 | CCC(=O)OCC(=O)C1(OC(=O)CC)C(C)CC2C3C(Cl)C=C4CC(=O)C=CC4(C)C3C(O)CC21C (centres undefined) [euspeclibcmpd1830] | inactive: -0.727
25 | CCCCCCOc1ccccc1C(N)=O [euspeclibcmpd1139] | inactive: 0.59
26 | COc1cccc2c(O)c3c(O)c4c(c(O)c3c(O)c12)=C(O[C@H]1C[C@H](N)[C@H](O)[C@H](C)O1)C[C@](O)(C(C)=O)C=4 [euspeclibcmpd83] | inactive: 0.648
27 | NC[C@H](O)c1ccc(O)c(O)c1 [euspeclibcmpd212] | inactive: -0.909
28 | CCN(CC)CCNC(=O)c1ccc(N)cc1 [euspeclibcmpd247] | inactive: -0.33
29 | COc1ccc(-c2cc(=O)c3c(OC)c(OC)c(OC)c(OC)c3o2)cc1OC [euspeclibcmpd1435] | inactive: 1.9
30 | O=c1cc[nH]c(=O)[nH]1 [euspeclibcmpd476] | inactive: -0.4
31 | C=C1C(N)CC2CC1C2(C)C (centres undefined) [euspeclibcmpd1932] | inactive: -0.42
32 | CCCCC(CC)COc1ccc(-c2nc(-c3ccc(OC)cc3)nc(-c3ccc(OCC(CC)CCCC)cc3O)n2)c(O)c1 (centres undefined) [euspeclibcmpd711] | inactive: -0.225
33 | COc1ccc(-c2cc(=O)c3c(OC)c(OC)c(OC)c(OC)c3o2)cc1 [euspeclibcmpd1464] | active: 6.78
34 | NC[C@H]1O[C@H](OC2[C@@H](N)C[C@@H](N)[C@H](O[C@H]3O[C@H](CO)[C@@H](O)[C@H](N)[C@H]3O)[C@H]2O)[C@H](O)[C@@H](O)[C@@H]1O (some centres undefined) [euspeclibcmpd168] | inactive: -0.199
35 | CN1CCN(C(=O)Oc2c3nccnc3c(O)n2-c2ccc(Cl)cn2)CC1 [euspeclibcmpd2130] | inactive: -0.245
36 | CC12CC3CC(C)(C1)CC(N)(C3)C2 [euspeclibcmpd384] | inactive: -0.12
37 | CC(C)=CCCC(C)[C@@H]1CC[C@]2(C)C3=C(CC[C@@]12C)C1(C)CC[C@H](O)C(C)(C)C1CC3 (some centres undefined) [euspeclibcmpd2235] | active: 2.85
38 | CCOc1ccc(Cc2nccc3cc(OCC)c(OCC)cc23)cc1OCC [euspeclibcmpd1056] | inactive: -1.25
39 | O=C(Nc1ccc([N+](=O)[O-])cc1Cl)c1cc(Cl)ccc1O [euspeclibcmpd562] | active: 2.35
40 | CS(C)(=O)=O [euspeclibcmpd1496] | active: 20.2
41 | Cc1cccc(N(C)C(=S)Oc2ccc3ccccc3c2)c1 [euspeclibcmpd299] | active: 8.23
42 | CCN1CCCC1CNC(=O)c1cc(S(N)(=O)=O)ccc1OC (centres undefined) [euspeclibcmpd403] | inactive: 0.263
43 | Cc1ccc2[nH]c3c(c2c1)CC(Nc1ccc(CCC(=O)N2CCCC2)cc1)CC3 (centres undefined) | active: 4.66
44 | NNC(=O)c1ccncc1 [euspeclibcmpd163] | inactive: 0.00123
